Article PMC6919601, “Identification of Plasmodium dipeptidyl aminopeptidase allosteric inhibitors by high throughput screening” (PLoS ONE, 2019)
Screen size: about 110,000 compounds; about 230 (0.21%) showed an effect of 50% or more. The list shows a part of the results.

molecular target: DPAP1 (Plasmodium falciparum, UniProt Q8IIJ9); experiment: primary screen, percent inhibition; read by cleavage of a fluorogenic dipeptide substrate; higher = more effect of the substance; set-up: species or system P. falciparum D10 trophozoite lysates; single well
Sequence (Q8IIJ9 whole entry, looked up): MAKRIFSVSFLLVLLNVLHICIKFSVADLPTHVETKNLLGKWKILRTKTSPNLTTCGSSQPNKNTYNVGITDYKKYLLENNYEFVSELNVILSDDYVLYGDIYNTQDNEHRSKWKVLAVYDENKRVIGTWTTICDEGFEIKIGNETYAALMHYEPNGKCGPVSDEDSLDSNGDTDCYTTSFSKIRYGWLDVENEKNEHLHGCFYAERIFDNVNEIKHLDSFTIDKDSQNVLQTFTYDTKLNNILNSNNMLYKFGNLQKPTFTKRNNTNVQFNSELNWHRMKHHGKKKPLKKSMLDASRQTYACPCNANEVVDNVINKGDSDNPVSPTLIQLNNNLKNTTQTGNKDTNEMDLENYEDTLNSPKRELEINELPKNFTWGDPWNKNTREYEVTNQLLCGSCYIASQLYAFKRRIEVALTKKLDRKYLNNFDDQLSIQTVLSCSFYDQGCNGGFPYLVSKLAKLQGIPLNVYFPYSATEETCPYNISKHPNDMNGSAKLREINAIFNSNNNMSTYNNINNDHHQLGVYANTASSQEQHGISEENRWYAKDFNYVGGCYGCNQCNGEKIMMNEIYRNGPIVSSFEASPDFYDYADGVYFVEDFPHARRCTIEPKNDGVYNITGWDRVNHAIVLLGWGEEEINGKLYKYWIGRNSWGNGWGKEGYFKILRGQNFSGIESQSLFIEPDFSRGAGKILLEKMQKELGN
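Also: 30 min substrate incubation versus DMSO and 10 µM JCP410 controls.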

SMILES | % Inhibition @ 10 uM [%]
COc1ccc(-c2cc3nc(C)c(Cc4ccccc4)c(O)n3n2)cc1 | -1.92
CC(=O)N1CC=C2C(C#N)=C(N)C(C#N)(C#N)C(c3ccc(F)cc3F)C2C1 (stereo not drawn) | -0.143
COc1ccc(S(=O)(=O)N(CC(=O)N2CCCCCC2)c2ccc(C)cc2)cc1OC | -0.48
O=C(O)C1CCN(S(=O)(=O)Cc2ccccc2)CC1 | 3.66
CCN1CCN(CCCNC(=O)Cc2ccc(-n3c(-c4ccccc4)nc4cccnc43)cc2)CC1 | -4.21
Cc1ccccc1-c1nc2s/c(=C\c3ccccc3)c(=O)n2n1 | 0.561
Cc1ccc2c(c1)cc1c(=O)n(CC(=O)NCC3CCCO3)nc(C)n12 (stereo not drawn) | 4.84
CCn1c2ccccc2c2cc(CNc3ccccc3F)ccc21 | 6.06
Cn1c(S)nnc1CSc1nc2ccccc2s1 | -6.69
c1cnc(N2CCN(Cc3ccoc3)CC2)nc1 | -6.21
CC(C)(C)OC(=O)N1CC2CC(C1)c1c(Br)cc(Br)c(=O)n1C2 (stereo not drawn) | -3.21
Cn1c2c(c(=O)n(C)c1=O)C(c1ccc(C(F)(F)F)cc1)C1=C(O)c3ccccc3C1=N2 (stereo not drawn) | 5.28
NS(=O)(=O)c1ccc(-n2ncc3c(O)nc(SCC(=O)NC4CCCCC4)nc32)cc1 | 3.61
COc1ccc(CN2CCC(O)CC2)c(C)c1C | -7.49
CC1CCN(CCNc2ncnc3onc(-c4ccc(F)cc4)c23)CC1 | 3.08
CCCc1cc(=O)n2nc(N3CCC(C(=O)NC(C)C45CC6CC(CC(C6)C4)C5)CC3)sc2n1 (stereo not drawn) | -3.79
Cc1nc2cc(/N=C/c3c(C)nn(-c4ccc(F)cc4)c3O)ccc2[nH]1 | 4.61
CSc1ccc(C2C(C#N)=C(N)Oc3cc(C)nc(O)c32)cc1 (stereo not drawn) | -1.11
Cc1nc2c(-c3ccc(F)cc3)c(C)nn2c(C)c1CC(=O)NCCCc1ccccc1 | 4.14
Cc1nc2c(C(=O)NCCN(C)Cc3ccccc3)cnn2c(C)c1Cc1ccccc1 | -2.26
CC(=O)N1CCN(c2ccc(NC(=O)COc3ccc(Cl)cc3)cc2)CC1 | -5.23
CCOc1ccccc1NC(=O)C1CC(=O)N(c2ccc(OCc3ccc(Cl)cc3)cc2)C1 (stereo not drawn) | -2.6
CCCCNc1oc(/C=C/c2cccs2)nc1C#N | -3.49
O=C(Nc1ccccc1)c1ccccc1NC(=O)C1CC1 | -0.173
CC(=O)c1cccc(NC(=O)c2cc(C)c(C)o2)c1 | 5.16

SMILES | % Inhibition @ 10 uM [%]
Cn1c(=O)c(C(=O)Nc2nc(C34CC5CC(CC(C5)C3)C4)cs2)c(O)c2ccccc21 | 20.6
Nc1cc(N)nc(SCc2ccccc2)n1 | -0.216
CCOc1ccc(C2NC(C(=O)O)CS2)cc1OC (stereo not drawn) | -0.105
CCOC(=O)N1CCC(N2Cc3cccc(C(=O)N4CCC(Cc5ccccc5)CC4)c3C2=O)CC1 | 2.9
Cc1ccc2c(CNC3CCCCCC3)c(C(=O)O)n(Cc3ccc(F)cc3Cl)c2c1 | -5.63
CCCCC(=O)Nc1nc2ccc(OCC)cc2s1 | -4.68
Cc1c(CC(=O)N2CCOCC2)c(=O)oc2c(C)c(O)ccc12 | -4.39
Cn1cccc1Cc1nnc(SCC(=O)NCc2ccco2)n1-c1ccc(F)cc1 | -2.19
COc1cc(CNC(=O)Cn2nc(C(F)(F)F)cc2C2CC2)cc(OC)c1 | -1.04
CN(C)c1ccnc(NCc2ccccc2)c1C#N | 3.01
O=C1c2ccccc2C(Nc2cccnc2)N1c1ccccn1 (stereo not drawn) | -2.83
CC(NC(=O)CC/N=c1/c(N2CCCC2)c(O)c1=O)c1ccccc1 (stereo not drawn) | 1.68
CC(=O)N1CCC2(CC1)C(C#N)=C(N)Oc1[nH]nc(C)c12 | 2.48
COC(=O)C1=C(N)Oc2cc(C)n(Cc3cccnc3)c(=O)c2C1c1ccc(OC)c(OC)c1OC (stereo not drawn) | -1.11
CCc1c(C)sc(NC(=O)COCc2cc(-c3cccs3)on2)c1C#N | 4.36
Cc1[nH]nc2c1C1(C(=O)Nc3ccccc31)C(C#N)=C(N)O2 (stereo not drawn) | 4.3
Cc1ccccc1N(C)S(=O)(=O)c1ccc(Cl)cc1 | 0.345
Cn1c(C(=O)O)c(CNCc2ccccc2Cl)c2ccccc21 | -2.95
Cc1ccccc1OCCSc1nc(O)c2ccccc2n1 | 1.62
O=C(CCc1nc2ccccc2[nH]1)N1CCC(Cc2ccccc2)CC1 | -9.95
c1ccc2c(CSc3nc4ccccc4o3)cccc2c1 | -2.48
CCOC(=O)c1cc(-c2ccccc2)n(CC(=O)N2CCN(C3CCCCC3)CC2)c1C | -7.66
COc1ccc(S(=O)(=O)Nc2ccc(Cl)cc2Cl)cc1 | -5.11
Cc1ccc(-c2noc(CCC(=O)N3CCCCC3C)n2)cc1 (stereo not drawn) | 2.42
O=c1c(/C=N/C2CCS(=O)(=O)C2)c(N2CCOCC2)nc2ccccn12 (stereo not drawn) | 5.94

SMILES | % Inhibition @ 10 uM [%]
O=C(O)CCN1C2=C(C(=O)CCC2)C(c2ccccc2OCc2cccc(F)c2)C2=C1CCCC2=O | -3.13
COc1ccc(C2OCC3(CO2)SC2=NCN(C)CN2C3=O)cc1 (stereo not drawn) | 4.46
Cc1ccnc(NC(=O)C2CCCN(c3ncnc4onc(C)c34)C2)c1 (stereo not drawn) | 1.67
CC1(c2ccc(Br)cc2[N+](=O)[O-])CC1 | -6.11
O=C(Cn1c(=O)sc2ccccc21)OC1CCCC1 | -6.24
Cc1cc(-c2cc(C(=O)O)c3ccccc3n2)c(C)s1 | -2.87
CCCc1noc(-c2ccc(OC)c(OC)c2)n1 | -2.27
Cc1cc(C)nc(SCc2nnc(SCC(N)=O)n2-c2ccc(F)cc2)n1 | -2.45
CCOCCCN1C(=O)CN(C2CCCCC2)C(=O)C1c1ccc(OC)c(OC)c1 (stereo not drawn) | -2.14
CCS(=O)(=O)N1CCC(C(=O)N2CCC3(CC2)OCCO3)CC1 | 3.79
O=C(Cn1ncc2c3ccccc3n(Cc3ccccc3)c2c1=O)N1CCN(c2ccccn2)CC1 | 4.95
COc1ccccc1NS(=O)(=O)CC(C)C | -2.35
Cc1ccc(Oc2ccc(NC(=O)CCCC(=O)O)cc2)cc1 | -4.68
Cc1ccc(-n2c(C)cc(/C=C3\SC(=O)NC3=O)c2C)cc1 | -1.07
COc1ccc(CNC(=O)C(c2ccccc2)N2Cc3ccccc3C2=O)cc1 (stereo not drawn) | -2.15
CC(C)OC(=O)c1c(NC(=O)COc2ccc(Cl)cc2)sc2c1CCCC2 | 9.77
CCOc1ccc(-n2c(C)c(C(C)=O)c3cc(O)ccc32)cc1 | -5.28
CSc1ncc(Cl)c(C(=O)Nc2c(C(=O)c3ccccc3)oc3ccccc23)n1 | 0.569
C/C(=N\CCCn1ccnc1)C1=C(O)c2ccccc2C1=O | 0.685
CCc1c2c(nc3sc(C(=O)Nc4ccccc4F)c(N)c13)CC(C)(C)CC2=O | 3.74
O=C(COc1ccccc1F)Nc1ccc(S(=O)(=O)Nc2nccs2)cc1 | -3.25
CC(C)CC(NC(=O)COc1ccccc1)C(=O)O (stereo not drawn) | -3.21
O=C(Nc1cccc(O)c1)C(Cc1ccc([N+](=O)[O-])cc1)N1C(=O)c2ccccc2C1=O (stereo not drawn) | 9.92
Cc1c2cnn(CC(=O)N3CC(C)CC(C)C3)c(=O)c2c(C)n1Cc1ccc(F)cc1 (stereo not drawn) | 1.22
CCCCCNc1nc(S)nc2ccccc12 | 17.7

SMILES | % Inhibition @ 10 uM [%]
O=C(CSc1nc2ccccc2c2nc(-c3ccccc3)nn12)NCc1ccccc1 | -4.19
N#Cc1ccc(N2C(=O)C3C4c5ccccc5C(c5ccccc54)C3C2=O)cc1 (stereo not drawn) | -6.67
Cn1cccc1/C=C1\CS/C(=C\c2cccn2C)C1=O | 6.82
CCOC(=O)c1cnc2ccc(C(=O)OC)cc2c1NCCCO | -0.85
CC1CCN(C(=O)C2COc3ccccc3O2)CC1 (stereo not drawn) | 1.27
C=CCNC(=O)c1cc2c(=O)n3cc(C)ccc3nc2n(Cc2cccnc2)c1=N | -1.47
CC1SC2(CN3CCC2CC3)NC1=O (stereo not drawn) | -5.51
COCCCn1c(=O)c2sccc2n2c(CCCC(=O)NC(C)CCc3ccccc3)nnc12 (stereo not drawn) | -3.88
CCn1c2ccccc2c2cc(C3C4=C(O)CCCC4=NC(C)=C3C(=O)OCCOC)ccc21 (stereo not drawn) | 4.86
Cc1ccc(NC(=O)C(C)SCc2ccccc2)c(C)c1 (stereo not drawn) | -4.48
O=C(COc1ccc(Cl)cc1)NCc1ccccn1 | -7.9
Cc1nc2c3cccnc3nn2c(C)c1CCC(=O)O | -0.0115
COc1ccc(Nc2cc(-c3ccccc3)nc(-c3ccc(Br)cc3)n2)cc1 | 5.73
O=C1CC(c2ccccc2Br)Sc2ccccc2N1 (stereo not drawn) | -1.78
CCC(=O)Nc1c(C(=O)N2CCc3ccccc3C2)cnn1-c1ccccc1Cl | -6.67
COc1ccc(CCNC(=O)C2CCCN(S(C)(=O)=O)C2)cc1OC (stereo not drawn) | 35.7
Cc1ccc(-c2[nH]nc3c2C(c2ccc4c(c2)OCO4)C(C#N)=C(N)O3)cc1 (stereo not drawn) | 4.09
CCOc1ccc(-c2nc3s/c(=C\C4=Cc5ccccc5OC4C)c(=O)n3n2)cc1 (stereo not drawn) | 0.487
CCOc1cc(C2C(C(C)=O)=C(C)Nc3ncnn32)ccc1OCc1ccccc1 (stereo not drawn) | -2.13
Nc1ncnc2c1ncn2CCOc1ccccc1 | -2.21
CCCc1noc2c1C(=O)CC(CC(C)SCC)C2 (stereo not drawn) | -0.902
COCCN1C(=O)/C(=C\c2ccc(C(=O)O)cc2)C(C(=O)OC)=C1C | -1.92
Cc1cccc(-c2noc(CN(C(=O)CCN3C(=O)c4ccccc4C3=O)C(C)C)n2)c1 | -1.22
Oc1c2c(nc3c(-c4ccc(Cl)cc4)cnn13)CCC2 | -5.28
